# According to PubChem BioAssay AID686970 (National Center for Advancing Translational Sciences (NCATS), 2013):
# The campaign covered roughly 360,000 compounds. About 6,000 (1.7%) were called active. This list was built around the results that the source calls inconclusive (neither active nor inactive); the mix of calls is not that of the screen. Calls come from the whole dose curve; as a rule, active = well fitted cell-killing curve with a large enough effect; inconclusive = small, poorly fitted or top-dose-only effect, or effect the other way; inactive = flat fitted curve, though single readings scatter. No potency is given beside an inconclusive call; the fits are too rough.
# Experiment: qHTS for induction of synthetic lethality in tumor cells producing 2HG: qHTS for the HT-1080-NT fibrosarcoma cell line;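 note: NT is the 2HG producing partner of a matched IDH1 knockdown line; nearly all actives have a fitted effect of over 55% in size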;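 for activity, negative = less viability: 0% = DMSO-treated cells and -100% = media-only wells without cells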
# Details: HT-1080-NT fibrosarcoma viability, CellTiter-Glo ATP luminescence, 48 h; activity, negative = less viability: at 46.1 µM (top of the series) unless noted
# Method in brief: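 Fibrosarcoma NT cells, 750 per well in 5% FBS RPMI, were exposed to compound for 48 hours. Viability: CellTiter-Glo luminescence.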
# Potency is the fitted concentration of half-maximal effect; tags give direction and shape of the fitted curve.
SMILES,Potency,"activity, negative = less viability"
CC(=O)Nc1cc(-c2ccsc2)cn2c(-c3ccc(F)cc3)cnc12,"inconclusive [cytotoxic, single point]",–
COc1ccccc1N(Cc1ccccc1)S(=O)(=O)c1cccc(C(=O)Nc2cc(C)ccn2)c1,inactive,–
CCc1cc(-c2[nH]ncc2-c2ccc3c(c2)OCO3)c(O)cc1O,"inconclusive [cytotoxic, single point]",–
COc1ccc(N=C2C(=Nc3ccc(OC)cc3)N(c3ccc(OC)cc3)C(=S)N2c2ccccc2)cc1,–,inconclusive: -26.6% [cytotoxic]
O=C(c1ccc(S(=O)(=O)N2CCOCC2)cc1)N1CCN(C2=NS(=O)(=O)c3ccccc32)CC1,inactive,–
O=C(Nc1cc(=O)[nH]c(=O)[nH]1)c1cc(Cl)ccc1Cl,"inconclusive [cytotoxic, full curve]",–
CCc1nc2c(OCc3ccc(Cl)cc3)cccn2c1N(C)C(=O)C1CC1,inactive,–
Cc1ccc(NC(=O)CN2C(=O)c3ccccc3S2(=O)=O)c(C)c1,"inconclusive [rising, single point]",–
COc1ccc(NC(=O)C(=O)NCC2CCCN2S(=O)(=O)c2cccs2)cc1 (configuration not stated),"inconclusive [cytotoxic, partial curve]",–
Cc1ccc(N(Cc2cc3ccc(C)cc3[nH]c2=O)S(=O)(=O)c2ccccc2)cc1,inactive,–
Cn1nc(C(C)(C)C)cc1C(=O)N1CCC(C)(C(=O)NS(=O)(=O)C2CC2)C1 (configuration not stated),"inconclusive [rising, single point]",–
Cc1ccc(Sc2ncccc2COC(=O)Nc2ccccc2)cc1,"inconclusive [cytotoxic, single point]",–
COc1ccc2c(-c3ccccc3)cc(SCC(=O)NC3CCS(=O)(=O)C3)nc2c1 (configuration not stated),"inconclusive [cytotoxic, partial curve]",–
COc1cc(S(=O)(=O)Nc2ccc(C)cc2)ccc1N=Cc1c(C)[nH]n(-c2ccc(C)cc2)c1=O,"inconclusive [cytotoxic, single point]",–
COc1ccc(C2c3ccc4ccccc4c3Oc3ncn(CCO)c(=N)c32)cc1 (configuration not stated),"inconclusive [cytotoxic, single point]",–
CCCCc1nc2cc(C(=O)NCc3nccn3CC)ccc2o1,"inconclusive [rising, single point]",–
N#Cc1sc2nc(N3CCCCC3)c3c(c2c1N)CCCC3,"inconclusive [cytotoxic, single point]",–
CC1CN(S(=O)(=O)c2cccc(C(=O)Nc3ccccc3N3CCOCC3)c2)CC(C)O1 (configuration not stated),inactive,–
COc1ccccc1N1CCN(C(=O)c2ccc3nc(-c4ccco4)c(-c4ccco4)nc3c2)CC1,"inconclusive [cytotoxic, single point]",–
CCCCOP(=O)(OCCCC)C1(NS(=O)(=O)c2ccccc2)C=CC(=O)c2ccccc21 (configuration not stated),active: 20.6 µM,–
CC(C(=O)NC(=O)NC1CCCCC1)N1CCN(C(c2ccccc2)c2ccccc2)CC1 (configuration not stated),inactive,–
Cc1cc(NC(=O)CN2C(=O)/C(=C/c3cccc(Br)c3)SC2=S)no1,inactive,–
CCCCOc1ccc(C2=NNC(=O)CC2)cc1,–,inconclusive: -31.5% [cytotoxic]

SMILES,Potency,"activity, negative = less viability"
COc1cccc(CC(=O)NNC(=O)c2ccc3c(c2)OCO3)c1,"inconclusive [rising, partial curve, poor fit]",–
COc1cc(NC(=O)C/C(C)=N/NC(=O)C(=O)NC2CCCCC2)c(OC)cc1Cl,"inconclusive [cytotoxic, single point]",–
CC1CCc2cc(F)cc3c(O)c(C(=O)NCCN(C)C)c(=O)n1c23 (configuration not stated),"inconclusive [cytotoxic, single point]",–
COC(=O)C1=C(C)N(Cc2ccccc2)C(=NCCc2cccnc2)N[C@H]1c1ccc(Br)cc1,"inconclusive [cytotoxic, single point]",–
C#CC(=O)N(c1cc(OC)ccc1OC)C(C(=O)NC1CCCC1)c1cccs1 (configuration not stated),active: 0.0731 µM,–
CC(=O)c1nn(-c2cccc(Br)c2)cc1C(=O)c1ccc(Cl)cc1,–,inconclusive: -35.4% [cytotoxic]
Cn1c(-c2cccc([N+](=O)[O-])c2)cnc1NCc1ccc(C#N)cc1,inactive,–
S=c1[nH]nc(-c2ccncc2)n1/N=C/C(Cl)=C\c1ccccc1,"inconclusive [cytotoxic, single point]",–
COc1ccccc1CNc1nc(NC(C)C)nc2cc(-c3ccccc3)sc12,–,inconclusive: -76.7%
CCN(C(=O)COC(=O)c1ncc(Cl)c(Cl)c1Cl)c1c(N)n(Cc2ccccc2)c(=O)[nH]c1=O,inactive,–
CCN(CC)c1ccc(NC(=O)CN2CCN(S(=O)(=O)c3cc(Cl)ccc3OC)CC2)cc1,"inconclusive [cytotoxic, single point]",–
O=S(=O)(Nc1cc(C(F)(F)F)ccc1N1CCOCC1)c1ccc2ccccc2c1,"inconclusive [cytotoxic, single point]",–
CN(Cc1cccs1)C(=O)COC(=O)CNC(N)=O,–,inconclusive: 35.2%
COc1ccc(C#Cc2c(-c3ccccc3)n(-c3ccccc3)c3ccc(CO)cc23)cc1,"inconclusive [cytotoxic, single point]",–
O=C(Nc1ccccc1)Nc1n[nH]c2nnc(-c3ccccc3)c(-c3ccccc3)c12,"inconclusive [cytotoxic, single point]",–
O=C(NCc1ccccc1)c1cccc2c(-c3ccc(F)c(F)c3)coc12,"inconclusive [cytotoxic, single point]",–
Cc1ccc(Sc2c(C#N)c(-c3ccccc3)nn2C)cc1,"inconclusive [cytotoxic, single point]",–
Cc1cccc(/C(N)=N/OC(=O)c2ccoc2C)c1,"inconclusive [cytotoxic, single point]",–
CN(C)c1ccc(/C=C(\C#N)c2ccccn2)cc1,"inconclusive [cytotoxic, partial curve]",–
Cc1ccc(-c2cn(-c3ccc(OC(F)F)cc3)c3[n+]2CCCCC3)cc1,"inconclusive [cytotoxic, partial curve, poor fit]",–
COc1ccc(NC(=O)N(Cc2cc3ccc(OC)cc3[nH]c2=O)CC2CCCO2)cc1 (configuration not stated),"inconclusive [cytotoxic, partial curve]",–
C=CCOc1ccc(/C=C2/C(=O)ON=C2C)cc1OC,"inconclusive [cytotoxic, partial curve]",–
COc1ccc(F)cc1-c1cc(C(=O)Nc2ccc(C)c(NS(C)(=O)=O)c2)[nH]n1,"inconclusive [cytotoxic, single point]",–

SMILES,Potency,"activity, negative = less viability"
CCC(C)Sc1ccc(-c2nc3ccccn3c2NCc2ccccc2)cc1OC (configuration not stated),"inconclusive [cytotoxic, single point]",–
Cc1ccc(S(=O)(=O)N2CCOCC2)cc1C(=O)OCC(=O)N1CCc2ccccc2C1,–,inconclusive: 30.6%
CCCCC(=O)NC(c1ccccc1Cl)c1ccc2cccnc2c1O (configuration not stated),"inconclusive [cytotoxic, full curve]",–
Cc1cccc(N(C)S(=O)(=O)c2c[nH]c3ccc([N+](=O)[O-])cc23)c1,"inconclusive [cytotoxic, single point]",–
CC(C)OC(=O)CN1C(=O)S/C(=C/c2ccc(N3CCCCC3)o2)C1=O,"inconclusive [cytotoxic, single point]",–
Cc1c(NC(=O)c2ccccc2)cccc1[N+](=O)[O-],inactive,–
Clc1ccc(CSc2nncn2-c2ccc3c(c2)OCCO3)cc1,active: 16.4 µM,–
Cn1c(=O)n(CCc2ccccc2)c(=O)c2c1nc1n2CCCN1CCc1ccccc1,active: 23.1 µM,–
CCN1CCc2c(sc(NC(=O)c3ccc(S(=O)(=O)N(C)CC4CCCO4)cc3)c2C(N)=O)C1 (configuration not stated),inactive,–
C=CCNC(=O)c1ccc(NC(=O)CC2SC(N3CCCC3)=NC2=O)cc1 (configuration not stated),inactive,–
CCN1C(=O)[C@H]2[C@@H](c3ccc(C(F)(F)F)cc3)N[C@]3(CCCN(Cc4ccc(C(F)(F)F)cc4)C3=O)[C@H]2C1=O,inactive,–
CCNS(=O)(=O)c1ccc(NC(=S)N2CCc3ccccc32)cc1,inactive,–
CN1CCc2c(OCC(=O)N3N=C(c4cccs4)CC3c3ccc(F)cc3)cccc2C1=O (configuration not stated),active: 23.1 µM,–
COc1ccc(OC)c(NC(=O)c2nnn(Cc3ccc(Br)cc3F)c2N)c1,inactive,–
O=C(Nc1ccc(F)cc1)N[C@H]1CC[C@H](CCNS(=O)(=O)c2cccc(Cl)c2)O[C@@H]1CO,inactive,–
CC(C)c1cc(C(N)=O)c(NC(=O)c2cccc(COc3ccc(Br)cc3)c2)s1,"inconclusive [cytotoxic, single point]",–
CCOC(=O)[C@]12CCC=C1N(CCC1=CCCCC1)C(=O)[C@H](CC(=O)N1CCC(c3ccccc3)CC1)C2,"inconclusive [cytotoxic, single point]",–
COC(=O)C1(C(=O)OC)c2ccccc2N(S(=O)(=O)c2ccc(C)cc2)C1CC(C)=O (configuration not stated),"inconclusive [cytotoxic, single point]",–
O=C(CSc1nnc(-c2ccc(Br)cc2)o1)N1CCN(C(=O)c2ccco2)CC1,inactive,–
CCN=c1scc(-c2ccccc2)n1/N=C/c1ccccn1,"inconclusive [cytotoxic, partial curve, poor fit]",–
O=C(C=Cc1cccc(O)c1)c1ccccc1O,"inconclusive [cytotoxic, single point]",–
